Laboratory results from the BET-seq Pho4 binding data (Le et al. 2018).
Some of the results follow. The energies were worked out here from pooled read counts, against the library average; single values are noisy.

Target: T1, Pho4 (S. cerevisiae) (UniProt P07270)
T1 sequence: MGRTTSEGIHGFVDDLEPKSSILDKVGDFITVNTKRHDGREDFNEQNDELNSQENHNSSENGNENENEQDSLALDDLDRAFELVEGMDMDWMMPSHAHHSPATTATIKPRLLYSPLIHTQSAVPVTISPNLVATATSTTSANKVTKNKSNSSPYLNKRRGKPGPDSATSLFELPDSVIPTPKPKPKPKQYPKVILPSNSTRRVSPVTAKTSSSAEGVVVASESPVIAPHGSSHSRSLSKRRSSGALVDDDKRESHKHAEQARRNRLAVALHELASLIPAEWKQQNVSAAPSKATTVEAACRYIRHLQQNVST
Test: relative binding free energy (BET-seq); higher = weaker binding
Settings: reference: library average

Row | Sequence | relative binding free energy [kcal/mol]
1 | CGAGACACGTGGATGG | 0.05
2 | AAGTACACGTGCGGGT | 0.01
3 | AGGTTCACGTGATATG | 0.41
4 | GTGGTCACGTGGTGCA | 0.11
5 | TGTGCCACGTGGAGCT | -0.12
6 | ATGTGCACGTGGTACA | -0.15
7 | TAAGACACGTGCGTTG | 0.01
8 | TAAAGCACGTGGGGGC | -0.23
9 | TTGTGCACGTGTGTTA | 0.08
10 | AGTCTCACGTGTGCTG | 0.15
11 | GCGGTCACGTGAGGTG | 0.33
12 | TTTATCACGTGGGTGC | -0.08
13 | TATTGCACGTGCGCGT | -0.16
14 | TTCGTCACGTGATGGC | 0.22
15 | AGAATCACGTGTGGGG | 0.16
16 | TTCGTCACGTGAGGCG | 0.26
17 | TTACGCACGTGGAAGT | -0.06
18 | ATTAGCACGTGAATGA | 0.12
19 | TGTACCACGTGGGTAA | 0.05
20 | TTTTTCACGTGCCGTG | 0.29
21 | TATGGCACGTGGGGTG | -0.19
22 | TTTGTCACGTGAACTT | 0.18
23 | ATATTCACGTGTATAT | 0.35
24 | TATATCACGTGTTACT | 0.18
25 | GGATGCACGTGAAAGT | 0.17

Row | Sequence | relative binding free energy [kcal/mol]
26 | TTGCTCACGTGAGGAG | 0.31
27 | GCTGGCACGTGGGATG | -0.13
28 | GTATGCACGTGTATGG | -0.04
29 | AATGTCACGTGTTGTT | 0.17
30 | GTGTGCACGTGGGCCC | -0.1
31 | TTCGGCACGTGTGGAG | -0.05
32 | AGTGACACGTGTTCGG | 0.03
33 | GATTTCACGTGGATAG | 0.46
34 | GATTGCACGTGGGGAG | -0.05
35 | TAGGTCACGTGGGCAA | 0.01
36 | GTGAGCACGTGAGAGA | 0.24
37 | AGGGGCACGTGGGAAA | -0.1
38 | GGGGGCACGTGTACGC | -0.16
39 | GGCAACACGTGTGGGG | 0.18
40 | GTTAGCACGTGGTTTT | 0.04
41 | GTCGGCACGTGTTTTT | 0.09
42 | TGGGACACGTGTCTTG | 0.04
43 | AAATTCACGTGTTAGT | 0.15
44 | CGTATCACGTGACGGG | 0.14
45 | ATTGACACGTGGCTGG | -0.07
46 | TAGTTCACGTGCGGCT | 0.27
47 | TAGGTCACGTGTGGTG | 0.13
48 | AGGGGCACGTGTGACA | 0.03
49 | TTAAACACGTGGATAT | 0.08
50 | GATGGCACGTGGTTCA | -0.01

Row | Sequence | relative binding free energy [kcal/mol]
51 | ATGGTCACGTGGATCT | 0.09
52 | ATGGCCACGTGTGATA | 0.05
53 | TAAATCACGTGAAGGG | 0.27
54 | GTGCACACGTGTGATT | 0.16
55 | TAATGCACGTGACATG | 0.21
56 | TGGTCCACGTGATGAG | 0.2
57 | CGTGTCACGTGAGGGA | 0.11
58 | CGGAACACGTGGGGGA | -0.05
59 | TGGGACACGTGTTGAA | 0.05
60 | TTGACCACGTGTGAGG | -0.03
61 | TGATTCACGTGTTCTA | 0.28
62 | GATGGCACGTGTGACG | 0
63 | TTATTCACGTGCGGTG | 0.12
64 | TATGACACGTGATGGG | 0.15
65 | AGCGACACGTGGATGT | 0.06
66 | AGTTGCACGTGAGAAG | 0.26
67 | AGGTTCACGTGAGAAA | 0.36
68 | TCTGGCACGTGGATAT | -0.14
69 | TGTTACACGTGTTTAT | 0.17
70 | TTGATCACGTGGGAGA | 0.07
71 | TGTGGCACGTGATTCA | 0.06
72 | GGAGACACGTGAGTGT | 0.18
73 | GTCGGCACGTGTTAGG | 0
74 | CTAATCACGTGGTTGG | -0.02
75 | TGGGGCACGTGAAGTG | 0.31

Row | Sequence | relative binding free energy [kcal/mol]
76 | GTTGCCACGTGGTATG | -0.18
77 | AGTGTCACGTGTGTGA | 0.2
78 | ATATGCACGTGGGTAT | -0.08
79 | CTAGGCACGTGTCAGT | -0.03
80 | AGAGTCACGTGTTGGT | 0.12
81 | ATGTGCACGTGGCAAG | -0.14
82 | AATGGCACGTGTGATG | 0.14
83 | TAATTCACGTGGAATT | 0.21
84 | AGTAGCACGTGGATGA | -0.09
85 | TCTGACACGTGATTTG | 0.25
86 | TAGGCCACGTGGGCGG | -0.29
87 | TCGTTCACGTGATATT | 0.47
88 | CAGTGCACGTGGTAGA | 0.01
89 | AATGGCACGTGTTGTC | 0.1
90 | CAGTGCACGTGGGTTC | -0.09
91 | TTGCGCACGTGGGGCG | -0.29
92 | TGAGTCACGTGGGACT | -0.03
93 | CACGTCACGTGTGGGG | 0.1
94 | ATTAGCACGTGAGTAC | 0.39
95 | TGTAGCACGTGATTAG | 0.02
96 | GTAGGCACGTGATATA | 0.01
97 | GAGTACACGTGGGTCT | -0.11
98 | GGTATCACGTGGCGGG | 0.15
99 | TGGGTCACGTGTGCAT | 0
100 | AGTGTCACGTGTGAGT | 0.19

Row | Sequence | relative binding free energy [kcal/mol]
101 | GGGTTCACGTGTGTCT | 0.28
102 | AAGTACACGTGATTTT | 0.17
103 | ATAGGCACGTGGGATG | -0.32
104 | TGCGGCACGTGTGATG | -0.04
105 | TTGCTCACGTGAGGTT | 0.3
106 | CGGGACACGTGGAAGG | 0.18
107 | AGACGCACGTGATGGG | 0.04
108 | CGGGCCACGTGCGGGG | -0.26
109 | TTATGCACGTGGCCGG | -0.09
110 | TAGTTCACGTGTTCAT | 0.19
111 | CCGTGCACGTGAGTGT | 0.14
112 | TGGGTCACGTGGGGCG | -0.03
113 | ATAGTCACGTGAAGGC | 0.34
114 | GTTGGCACGTGGGGAT | -0.16
115 | ATTAACACGTGTGTTT | -0.04
116 | GTGCACACGTGATTGA | 0.27
117 | CGTGGCACGTGGCTGG | -0.18
118 | GCTTTCACGTGGTAGG | 0.22
119 | GGGCACACGTGTGTTG | -0.08
120 | TTTCGCACGTGATGTT | 0.11
121 | TATGTCACGTGCTGGC | 0.17
122 | ACTAGCACGTGGTAGG | -0.2
123 | TGGGGCACGTGCCGAG | -0.26
124 | GGATGCACGTGACAGT | 0.3
125 | GTTGTCACGTGGGAGA | 0.17

Row | Sequence | relative binding free energy [kcal/mol]
126 | TAATGCACGTGGGTCT | -0.14
127 | ATCGTCACGTGGTGTA | -0.02
128 | AAGTTCACGTGGGCTA | 0.31
129 | GTGTACACGTGAGGGA | 0.31
130 | CAGGGCACGTGGTAGG | -0.27
131 | ATAGGCACGTGGCTGT | -0.15
132 | CTGTTCACGTGATAGG | 0.36
133 | TAGGTCACGTGCTGGT | 0.11
134 | TGAGTCACGTGACGAT | 0.21
135 | GGCTGCACGTGAATGG | 0.3
136 | GTAAGCACGTGGGAGT | -0.16
137 | GGGGCCACGTGGATGG | 0
138 | AGTGACACGTGGAGAG | 0.04
139 | CATGACACGTGGTTGT | -0.1
140 | GTGAGCACGTGTCTGT | -0.09
141 | TAGGCCACGTGTAGGA | -0.05
142 | ATTTTCACGTGTTATC | 0.21
143 | ATTGTCACGTGCATGG | 0
144 | CGCTACACGTGTGTGT | 0.07
145 | ATGAGCACGTGTCATG | -0.03
146 | AGAATCACGTGAGGGT | 0.3
